This passage reports relative growth results from the supplement of paper PMC9446081.

In all, about 39,000 compounds went through this assay and about 220 (0.56%) showed activity. This is one part of the list.
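Note: static incubation at 37 °C against the wild-type strain, values averaged over two biological replicates.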

The assay relates to Escherichia coli K-12 BW25113. The experiment in a line: relative growth (OD600 normalised to plate interquartile mean) (fraction); higher = less growth inhibition, active = 0.2 or less. Particulars: 50 µM; LB; incubation time: overnight (16-24 h).
For `N#CC(c1ccc(Cl)cc1)c1c(Cl)cc(-n2ncc(=O)[nH]c2=O)cc1Cl` (centres undefined), the relative growth was inactive: 0.808.

In the case of `Cn1cnc(S(=O)(=O)N2C[C@H](O)COC[C@@H]3O[C@H](CC(=O)NC4CCC4)CC[C@H]32)c1`, the relative growth is inactive: 0.975.

`COc1ccc2c3c(n(c2c1)C)[C@H](CO)N(C[C@]13CCN(CC1)C(=O)Nc1ccc(cc1F)F)C(=O)Nc1ccc(cc1)F`: the relative growth is inactive: 1.01.

`CO[C@@H]1CN(C)C(=O)c2ccc(NC(=O)Nc3cccc(F)c3)cc2OC[C@H](C)N(C(=O)Nc2c(C)noc2C)C[C@@H]1C`: the relative growth is inactive: 1.

With `CCCNC(=O)N1C[C@]2(CCN(CC2)S(=O)(=O)c2cccc(c2)OC)c2c(n(c3cc(ccc23)OC)C)[C@@H]1CO`, the relative growth is inactive: 0.994.

Consider `C[C@H]1CN([C@@H](C)CO)S(=O)(=O)c2ccc(C#Cc3ccccc3F)cc2O[C@H]1CN(C)CC1CC1`, for which the relative growth was inactive: 0.977.

In the case of `Cc1ccc2c(c1)C(=O)CCS2`, the relative growth is inactive: 0.983.

Take `C[C@H]1CCCCO[C@@H](CN(C)C(=O)Nc2cccc3ccccc23)[C@@H](C)CN([C@@H](C)CO)C(=O)c2cc(NS(C)(=O)=O)ccc2O1`: the relative growth is inactive: 0.979.

For the molecule `C[C@H]1CCCCO[C@H](CN(C)S(C)(=O)=O)[C@@H](C)CN([C@@H](C)CO)C(=O)c2cc(NS(=O)(=O)c3cn(C)cn3)ccc2O1`, the relative growth is inactive: 1.

As to `C[C@@H]1CN([C@@H](C)CO)C(=O)CCCn2nncc2CO[C@H]1CN(C)S(=O)(=O)c1ccc(-n2cccn2)cc1`, the relative growth is inactive: 0.985.

As for `O=C(C[C@@H]1C[C@@H]2c3cc(NS(=O)(=O)c4ccc(F)cc4)ccc3O[C@@H]2[C@@H](CO)O1)NCCN1CCCCC1`, the relative growth was inactive: 1.01.

For `C[C@H](CO)N1C[C@H](C)[C@@H](CN(C)C(=O)Cc2ccccc2)OCCCC[C@H](C)Oc2ccc(NC(=O)Nc3ccc(F)cc3)cc2C1=O`, the relative growth was inactive: 1.

For `COc1ccc(NC(=O)Nc2ccc3c(c2)C(=O)N([C@@H](C)CO)C[C@@H](C)[C@@H](CN(C)C(=O)Nc2ccc(C(F)(F)F)cc2)OCCCC[C@@H](C)O3)cc1`, the relative growth is inactive: 0.956.

For `C[C@@H]1CN([C@H](C)CO)C(=O)Cc2cc(NC(=O)Nc3ccc(C(F)(F)F)cc3)ccc2O[C@H]1CN(C)C(=O)NC1CCCCC1`, the relative growth was inactive: 0.997.

In the case of `COc1ccc(NC(=O)Nc2ccc3c(c2)C(=O)N([C@@H](C)CO)C[C@H](C)[C@H](CN(C)S(=O)(=O)c2cn(C)cn2)O3)cc1`, the relative growth is inactive: 0.986.

Turning to `C[C@@H]1CN([C@@H](C)CO)C(=O)c2cc(NC(=O)CCCN(C)C)ccc2O[C@@H]1CN(C)S(=O)(=O)c1ccccc1`, the relative growth is inactive: 1.03.

Regarding `CC(C)NC(=O)Nc1ccc2c(c1)C(=O)N([C@H](C)CO)C[C@H](C)[C@H](CN(C)Cc1ccc(C(F)(F)F)cc1)OCCCC[C@H](C)O2`, the relative growth is inactive: 1.03.

In the case of `CC(C)NC(=O)Nc1ccc2c(c1)C(=O)N([C@H](C)CO)C[C@@H](C)[C@H](CN(C)S(=O)(=O)c1cccs1)O2`, the relative growth is inactive: 1.02.

For the molecule `CO[C@H]1CN(C)C(=O)c2cc(NC(=O)Nc3ccccc3F)ccc2OC[C@H](C)N(Cc2ccccc2C(=O)O)C[C@H]1C`, the relative growth is inactive: 0.99.

On to `CNC(=O)C[C@H]1CC[C@@H]2[C@H](COC[C@@H](O)CN2C(=O)c2ccc3c(c2)OCO3)O1`, for which the relative growth was inactive: 0.996.

As to `COc1ccc(NC(=O)N(C)C[C@@H]2OCCCC[C@H](C)Oc3ccc(NS(=O)(=O)c4ccc(OC)cc4)cc3C(=O)N([C@H](C)CO)C[C@@H]2C)cc1`, the relative growth was inactive: 0.974.

`COc1ccc(NC(=O)Nc2ccc3c(c2)C(=O)N([C@@H](C)CO)C[C@H](C)[C@H](CN(C)C(=O)Nc2ccc(OC)cc2)OCCCC[C@H](C)O3)cc1`: the relative growth is inactive: 0.996.

Regarding `C[C@@H]1CCCCO[C@@H](CN(C)Cc2ccc(C(F)(F)F)cc2)[C@H](C)CN([C@H](C)CO)C(=O)c2cc(NC(=O)Nc3ccc(C(F)(F)F)cc3)ccc2O1`, the relative growth is inactive: 1.02.

For `Cc1sc(Nc2ccccc2)nc1-c1ccc(Cl)cc1`, the relative growth was inactive: 1.04.

For the molecule `C[C@@H]1CCCCO[C@@H](CN(C)C(=O)NC2CCCCC2)[C@H](C)CN([C@H](C)CO)C(=O)c2cc(NC(=O)Cc3ccccc3)ccc2O1`, the relative growth is inactive: 0.984.

For the molecule `C[C@@H]1CN([C@@H](C)CO)S(=O)(=O)c2ccc(C#Cc3ccccn3)cc2O[C@@H]1CN(C)Cc1ccccc1`, the relative growth is inactive: 1.02.

Turning to `CNC(=O)c1ccc(N)cc1`, the relative growth is inactive: 1.01.

Turning to `C[C@@H]1CN([C@H](C)CO)C(=O)c2cc(NC(=O)Nc3cccc4ccccc34)ccc2O[C@@H]1CN(C)Cc1ccc(Oc2ccccc2)cc1`, the relative growth was inactive: 1.02.

In the case of `C[C@@H]1CN([C@H](C)CO)C(=O)c2cc(NC(=O)Nc3cccc4ccccc34)ccc2O[C@H]1CN(C)S(=O)(=O)c1ccc(Cl)cc1`, the relative growth was inactive: 1.03.

Consider `COc1cc2c(cc1OC)CN(C(=O)[C@H]1[C@@H]3C(=O)O[C@@H](c4ccccc4)[C@@H](c4ccccc4)N3[C@@H](c3ccccc3OCCO)[C@]13C(=O)Nc1ccc(C#CC4=CCCCC4)cc13)CC2`, for which the relative growth was inactive: 1.09.

Turning to `COc1ccc(NC(=O)N(C)C[C@@H]2OCCCC[C@@H](C)Oc3ccc(NC(=O)Nc4ccc(F)cc4)cc3C(=O)N([C@@H](C)CO)C[C@H]2C)cc1`, the relative growth is inactive: 1.01.

`Cc1noc(C)c1NC(=O)N(C)C[C@H]1Oc2ncc(C#CCC(C)C)cc2C(=O)N([C@H](C)CO)C[C@@H]1C`: the relative growth was inactive: 0.981.

Regarding `C[C@H]1CN([C@@H](C)CO)C(=O)Cc2cc(NC(=O)CCN3CCOCC3)ccc2O[C@H]1CN(C)C(=O)Nc1ccc2c(c1)OCO2`, the relative growth is inactive: 1.

On to `COc1ccc(S(=O)(=O)N(C)C[C@H]2OCCCC[C@H](C)Oc3ccc(NS(=O)(=O)c4ccc(Cl)cc4)cc3C(=O)N([C@@H](C)CO)C[C@H]2C)cc1`, for which the relative growth was inactive: 1.04.

Regarding `O=C(NCc1nc2ccccc2[nH]1)C1=C[C@H](c2ccc(C(F)(F)F)cc2)C[C@H](OCc2ccc(CO)cc2)O1`, the relative growth is inactive: 1.02.

Consider `CCc1nc2ccccc2c(N)c1C`, for which the relative growth is inactive: 0.99.

In the case of `C[C@@H]1CN([C@@H](C)CO)C(=O)c2cc(NC(=O)Nc3cccc4ccccc34)ccc2O[C@H]1CN(C)Cc1ccc(Cl)c(Cl)c1`, the relative growth was inactive: 1.03.

As for `C[C@H](CO)N1C[C@H](C)[C@H](CN(C)C(=O)Nc2cccc3ccccc23)OCCCC[C@H](C)Oc2ccc(NC(=O)Nc3ccc4c(c3)OCO4)cc2C1=O`, the relative growth is inactive: 1.01.

Consider `C[C@H]1CCCCO[C@@H](CN(C)Cc2ccc(C(=O)O)cc2)[C@@H](C)CN([C@@H](C)CO)C(=O)c2cc(NC(=O)Cc3ccccc3)ccc2O1`, for which the relative growth was inactive: 0.986.

With `O=C(c1ccncc1)N1C[C@H]2[C@@H](c3ccccc31)[C@H](CO)N2C(=O)CN1CCOCC1`, the relative growth was inactive: 1.02.

Take `O=C(C[C@@H]1CC[C@H]2[C@@H](COC[C@@H](O)CN2S(=O)(=O)c2ccccc2)O1)N[C@@H]1CCN(Cc2ccccc2)C1`: the relative growth is inactive: 0.999.

In the case of `CNC(=O)Cc1cnc(N)s1`, the relative growth was inactive: 0.981.

Take `NNC(=O)CN1CCCc2ccccc21`: the relative growth is inactive: 0.941.

Turning to `COc1ccc(S(=O)(=O)N(C)C)cc1`, the relative growth was inactive: 1.02.

With `CCC(=O)c1ccc(O)cc1`, the relative growth is inactive: 1.02.

For `C[C@@H]1CN([C@H](C)CO)C(=O)Cc2cc(NS(=O)(=O)c3ccc(Cl)cc3)ccc2O[C@@H]1CN(C)C(=O)Nc1cccc2ccccc12`, the relative growth is inactive: 1.01.

As to `CCS(=O)(=O)Nc1ccc2c(c1)C(=O)N(C)C[C@@H](OC)[C@@H](C)CN(Cc1ccccn1)[C@H](C)CO2`, the relative growth was inactive: 1.04.

In the case of `C[C@@H]1CCCCO[C@@H](CN(C)C(=O)NC2CCCCC2)[C@@H](C)CN([C@H](C)CO)C(=O)c2cc(NC(=O)Nc3ccc4c(c3)OCO4)ccc2O1`, the relative growth is inactive: 0.98.

With `COc1ccc(CN(C)C[C@H]2OCCCC[C@H](C)Oc3ccc(NC(=O)Nc4ccc(C(F)(F)F)cc4)cc3C(=O)N([C@H](C)CO)C[C@H]2C)cc1`, the relative growth is inactive: 0.997.

With `C=CCC[C@H](Cc1ccc(F)cc1)C(=O)O[C@@H](CNC(=O)[C@H](CC=C)CC(=O)N(CCO)Cc1ccccc1)c1ccccc1`, the relative growth is inactive: 1.08.

As for `Cc1noc(C)c1NC(=O)N(C)C[C@@H]1Oc2c(NC(=O)c3ccc(-c4nccs4)cc3)cccc2C(=O)N([C@@H](C)CO)C[C@H]1C`, the relative growth is inactive: 0.982.

Consider `COc1ccc(NC(=O)Nc2ccc3c(c2)C(=O)N([C@H](C)CO)C[C@H](C)[C@@H](CN(C)S(=O)(=O)c2c(C)noc2C)O3)cc1`, for which the relative growth was inactive: 1.06.

On to `C[C@@H]1CN([C@H](C)CO)C(=O)c2cccc(NC(=O)Nc3ccc(C(F)(F)F)cc3)c2O[C@H]1CN(C)C(=O)Nc1ccc2c(c1)OCO2`, for which the relative growth is inactive: 0.801.

For `C[C@H](CO)N1C[C@H](C)[C@@H](CN(C)S(=O)(=O)c2cn(C)cn2)Oc2c(NC(=O)c3ccncc3)cccc2C1=O`, the relative growth was inactive: 1.01.

Consider `COCC(=O)N1C[C@H](C)[C@@H](OC)CN(C)C(=O)c2ccc(NC(=O)Nc3cccc(F)c3)cc2OC[C@@H]1C`, for which the relative growth was inactive: 1.04.

Regarding `C[C@H](CO)N1C[C@H](C)[C@H](CN(C)C(=O)Nc2ccccc2)Oc2c(NC(=O)Nc3cccc4ccccc34)cccc2C1=O`, the relative growth is inactive: 1.01.

With `C[C@@H]1CCCCO[C@H](CN(C)Cc2ccc(C(=O)O)cc2)[C@@H](C)CN([C@H](C)CO)C(=O)c2cc(NC(=O)c3ccccc3)ccc2O1`, the relative growth was inactive: 1.02.

`COc1ccc(NC(=O)N(C)C[C@@H]2Oc3ccc(NS(C)(=O)=O)cc3CC(=O)N([C@H](C)CO)C[C@H]2C)cc1`: the relative growth is inactive: 0.997.

As to `Cc1ccc(S(=O)(=O)Nc2ccc3c(c2)CC(=O)N([C@H](C)CO)C[C@H](C)[C@@H](CN(C)S(C)(=O)=O)O3)cc1`, the relative growth is inactive: 0.983.
